Assay results: PubChem BioAssay (NCI)
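Results reflect a 48-hour exposure of cells in 96-well plates to compound at five concentrations. The concentration for 50% growth inhibition is given as GI50. TGI: concentration producing complete growth inhibition.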 Activity calls are given as the source filed them.

Tests used:
Assay in all cases: growth of human tumour cells (NCI), 48 h
CCRF-CEM leukemia = tested on: CCRF-CEM leukemia
HOP-92 NSCLC = tested on: HOP-92 NSCLC
NCI-H226 lung = tested on: NCI-H226 lung
NCI-H23 lung = tested on: NCI-H23 lung
SR leukemia = tested on: SR leukemia
UACC-257 melanoma = tested on: UACC-257 melanoma

Cc1cccc(Oc2nccc(-c3c(-c4ccc(F)cc4)ncn3C3CCNCC3)n2)c1C
GI50 (CCRF-CEM leukemia): inactive | TGI (CCRF-CEM leukemia): 20.7 µM | GI50 (HOP-92 NSCLC): inactive | TGI (HOP-92 NSCLC): 13 µM | GI50 (NCI-H226 lung): inactive | TGI (NCI-H226 lung): 23.1 µM | GI50 (NCI-H23 lung): inactive | TGI (NCI-H23 lung): > 25 µM | GI50 (SR leukemia): inactive | TGI (SR leukemia): 14.6 µM | GI50 (UACC-257 melanoma): inactive | TGI (UACC-257 melanoma): 8.77 µM
